Results published in ChEMBL document CHEMBL4888484, “Replenishing the malaria drug discovery pipeline: Screening and hit evaluation of the MMV Hit Generation Library 1 (HGL1) against asexual blood stage Plasmodium falciparum ,using a nano luciferase reporter read-out” (2022).
In all, about 150,000 compounds went through this assay and about 540 (0.36%) showed an effect of 50% or more. The list shows a part of the results.

The molecules below were run on Plasmodium falciparum (assay: Primary screen in NF54 nanoGlo assay, in single point, at 2uM, 72h; a lower Z score goes with more inhibition). Settings: timepoint 72 hour.
Assay type: functional, Erythrocyte

SMILES	% Inhibition	Z score
COc1nn(C)cc1NC(=O)NCc1cccc(Cl)c1OC	-1%	0.09
Cc1ccsc1[C@@H](O)CNC(=O)CN1C(=O)CCC1=O	-14%	2.35
COc1cc(OC)cc(C(=O)N2CCN(c3cc(N4CCN(C)CC4)ncn3)CC2)c1	-23%	2.01
CC(C)=CCN1CCC(NC(=O)C(=O)Nc2cc(C)ccc2F)CC1	-14%	1.75
Cc1cnn(C2CN(CCOCC(F)(F)F)C2)c1	0%	0.06
O=c1[nH]nc([C@H]2CCCN(S(=O)(=O)N3CCCC3)C2)n1-c1ccccc1	-7%	0.92
CCN(CC)C(=O)Cn1cc(C(=O)NCCOc2ccccc2)nn1	-20%	1.76
C[C@@H](c1ccc(F)cc1)n1c(CN2CCN(C)CC2)n[nH]c1=O	-5%	1
O=c1ccccn1CCN1CCN(C[C@H](O)c2ccccc2F)CC1	1%	-0.13
CC(=O)N1CC[C@H](CN(C)Cc2csc(-c3ccc(S(C)(=O)=O)cc3)n2)C1	-3%	0.23
CCCN(CCC)C(=O)CN1CCN(Cc2ccc3c(c2)CCO3)CC1	-11%	1.43
CN(C)C1(CNC(=O)CCC(F)(F)F)CCCC1	-24%	2.12
N#CCOc1cccc(Cl)c1Cl	-6%	0.93
O=C(CCN1CCc2ccccc21)Nc1ccc2c(c1)OCCO2	-9%	1.71
NC(=O)c1cccnc1N1CCC(Oc2ccc3ccccc3c2)(C(=O)O)CC1	-4%	0.73
CCC[C@H]1CN(c2nc3c(cc2C(=O)O)CCC3)C[C@@H]1N	-3%	0.53
Cc1ccc(F)c(S(=O)(=O)N2CCOc3nc(C)ccc32)c1	8%	-1.46
COC(=O)c1c(-c2ccc(C(=O)NC3CC(C)(C)NC(C)(C)C3)cc2)cnn1C	8%	-1.57
CCCc1noc(CCC(=O)N2CCCC[C@@H]2C)n1	-15%	1.54
COc1cc(NC(C)=O)c(C(=O)c2nccc3cc(OC)c(OC)cc23)cc1OC	6%	-0.69
CCn1cc(Br)cc1C(=O)N1CCNC[C@@H]1C	-8%	0.77
CC1(C)CN(Cc2noc(C3CC3)n2)CCO1	0%	-0.05
Cc1c(Cl)cncc1NC(=O)NC[C@H]1CCOC2(CCC2)C1	-8%	1.35
C[C@@H]1CN(C(=O)c2cccn(C)c2=O)CC[C@@]1(O)C1CCOCC1	-11%	1.8
CCn1nnc2c(N3CC(C(=O)NCc4cccnc4)C3)ncnc21	1%	-0.1
N#Cc1c(-c2ccccc2)c2c([nH]c1=O)CCCC2	-12%	1.6
Cc1cccc([C@H](CNC(=O)N(C)CCC2(O)CCCC2)N(C)C)c1	-14%	1.74
Cc1ccc(-c2csc(Nc3ccc(Cl)cn3)n2)o1	-4%	0.46

SMILES	% Inhibition	Z score
Cc1ccc(Oc2ccc(N[C@H]3CCc4ccc(F)cc43)cc2)nn1	-2%	0.26
Cn1c(-c2c(C(=O)N3CCOCC3)nc3ccccn23)nc2ccccc21	-5%	0.66
CC(C)C(=O)NC1CCN(c2nc(Cc3ccc(F)cc3)no2)CC1	36%	-1.54
O=C(NCCC1(O)CCOCC1)c1cc2n(n1)CCC2	-10%	1.41
Cc1c(CC(=O)N2CCN[C@H](C)C2)c2c(n1Cc1ccccc1)CCCC2=O	-4%	0.73
CCC[C@H]1CN(c2ncnc3ccsc23)C[C@@H]1N(C)C	-6%	1.14
CCc1nc(=O)c(C#N)nn1-c1ccc(OC)cc1	-3%	0.38
Cc1nn(CC(=O)N(C)c2ccccc2)c(C)c1Br	5%	-0.65
Cn1ccc(NC(=O)CC2(N3Cc4ccccc4C3=O)CCCCC2)n1	-3%	0.41
CCc1nnc(CN(CC)C(=O)Nc2ccc3c(c2)C[C@H](C)O3)o1	-12%	2.25
c1nc(N2CC3CCCC3C2)c2cn[nH]c2n1 (stereo not given)	2%	-0.24
Cc1nc(N)nc(C)c1C(=O)Nc1ccc(Nc2ncccn2)cc1	43%	-8.17
CC1CC(C(=O)Nc2ccccc2-c2cn[nH]c2)CC(=O)N1 (stereo not given)	-1%	0.24
Cc1cc(C)c2[nH]c(C)c(CC(=O)NCc3nnc(C)o3)c2c1	-19%	2.25
O=C(NCc1nccn1CCCc1ccccc1)N1CCc2c(F)cccc21	-12%	1.25
CC(NC1CC(O)C1(C)C)c1cc2n(n1)CCC2 (stereo not given)	-4%	0.59
Cc1noc(C)c1S(=O)(=O)N[C@H]1CCOC[C@@H]1OCc1cscn1	-12%	2.34
COC(CNC(=O)C1CCCO1)c1ccccc1 (stereo not given)	3%	-0.48
CCN(Cc1nc(C)no1)C(=O)[C@@H]1COc2c(cccc2OC)C1	-1%	0.08
CCCCN(CC)c1cc(Oc2ccc(Cl)cc2)ncn1	-8%	0.73
CC(=O)N1CCC([C@@H]2CN(C(=O)Cc3cccc(C)c3)C[C@H]2CO)CC1	-5%	0.96
O=C(Cc1ccoc1)N1CCC[C@H](Cn2cnc3ccccc32)C1	19%	-2.36
Cc1ccc(C(=O)NS(=O)(=O)C[C@H]2CCCO2)nc1C	1%	-0.15
CCOC(=O)N1CCC[C@@]2(CCN(Cc3nc(-c4ccccc4)no3)C2)C1	-8%	1.05
Cc1ccc(OCC(=O)N2CC[C@@H](N)C2)c(C)c1	-1%	0.12
O=C(O)[C@@H]1CN(C(=O)c2nc(-c3ccccc3)n(-c3ccccc3)n2)CCO1	-9%	1.36
CNc1nc(Nc2ccc(OC(F)(F)Cl)cc2)nc(N2CCN(c3cccc(Cl)c3)CC2)n1	-11%	1.51
